According to paper PMC4242493:
The other results are listed elsewhere or left out. The list includes weakly bound sequences.

Biological target: MaxL homodimer (UniProt P61244)
Experiment: universal protein-binding microarray (PBM)
Settings: PBS-based mixture, 10 nM His-tagged protein dimer, 2% milk, 200 ng/uL BSA, 50 ng/uL salmon testes DNA, 0.02% TX-100; detection with Alexa 488 anti-His …; high values mean tight binding; most listed sequences are background and not binding sites; double strand, one strand shown

UniProt P61244, sequence (P61244 whole entry): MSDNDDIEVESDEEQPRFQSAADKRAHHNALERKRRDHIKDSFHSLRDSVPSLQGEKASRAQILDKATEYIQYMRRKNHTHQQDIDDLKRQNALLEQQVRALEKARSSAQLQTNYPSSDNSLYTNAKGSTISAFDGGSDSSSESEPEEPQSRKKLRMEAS

| Sequence | binding signal (normalized occupancy) |
| --- | --- |
| GGGACCTA | 0.0727 |
| ATAAGTCA | 0.0772 |
| AACGGTTA | 0.0738 |
| GAGAGTTA | 0.0759 |
| TAGTCAGA | 0.0682 |
| AGATGGCG | 0.0737 |
| CTCTAGAA | 0.0758 |
| AGCGCATG | 0.109 |
| CGGACCGC | 0.0682 |
| AGCCAGCG | 0.0718 |
| CCCCCTTA | 0.0818 |
| AACAGAGC | 0.0683 |
| CCAGAATC | 0.0733 |
| CAGGGTCC | 0.0727 |
| CCTTTCCG | 0.0638 |
| AAAGTCAC | 0.0795 |
| CTAGGCAC | 0.0749 |
| ATCTGCGG | 0.0685 |
| GTCGGGCA | 0.0729 |
| CATGCTGG | 0.125 |
| ATTAATTA | 0.0701 |
| CCATTTCC | 0.0778 |

| Sequence | binding signal (normalized occupancy) |
| --- | --- |
| CGACGTTA | 0.0745 |
| AAAGGGAG | 0.0725 |
| CACCTAGC | 0.0763 |
| AAAATTAC | 0.0693 |
| ATCCCTCG | 0.0753 |
| CATTAGCG | 0.0779 |
| AAGTTTCC | 0.0709 |
| GAATTGGA | 0.0743 |
| GCGCATCC | 0.0737 |
| GCGTATCA | 0.0767 |
| GACAAGGC | 0.0758 |
| ATATCAGG | 0.0861 |
| CCTTCCTC | 0.0734 |
| CCGGCCGC | 0.0663 |
| AAGGATCA | 0.0765 |
| GGTGATCA | 0.0835 |
| AGGTACTC | 0.0741 |
| AGTGTAGA | 0.0784 |
| ACGTCGAT | 0.0796 |
| AATGACCT | 0.0776 |
| ACGCTAAC | 0.0831 |
| GAGTTGGC | 0.0685 |

| Sequence | binding signal (normalized occupancy) |
| --- | --- |
| CCGAGTTA | 0.0739 |
| CAAAAGTA | 0.0739 |
| AATGCTTC | 0.0816 |
| CCCATCAC | 0.0843 |
| ACTCACAA | 0.0731 |
| AGTTTGAG | 0.0681 |
| ATATCACA | 0.0891 |
| ACAGGTCT | 0.0704 |
| CGCGGTGC | 0.0729 |
| GAGAAATA | 0.0824 |
| AAAAACGA | 0.0768 |
| AAATCGGA | 0.0675 |
| GATAGATA | 0.0808 |
| CGTCGATA | 0.0757 |
| ATGTTCCA | 0.0808 |
| CTGGTTTA | 0.0796 |
| GGGCTCCA | 0.0685 |
| GGTACGTA | 0.0841 |
| CTGACCAA | 0.0694 |
| CTGCGCTA | 0.0673 |
| CTATGAAG | 0.0742 |
| AACAATCC | 0.0768 |

| Sequence | binding signal (normalized occupancy) |
| --- | --- |
| AGTTCACA | 0.08 |
| CGTAGAGC | 0.0769 |
| AGTTTGCG | 0.0699 |
| CGGGGCGC | 0.0675 |
| CATATGCG | 0.105 |
| AAGGGCTC | 0.0681 |
| CAGAAGAC | 0.0718 |
| GATACAGC | 0.0857 |
| ACCAACAA | 0.077 |
| TCGAGGCA | 0.0756 |
| AGCTAAAG | 0.0685 |
| TAGCTCAA | 0.0683 |
| ACAGTTGC | 0.0708 |
| CGCCATCA | 0.0782 |
| GCGCACCA | 0.0775 |
| CAAGCGGC | 0.0656 |
| AGTGGCTA | 0.0699 |
| CTTTCTAA | 0.0688 |
| AATCTTCC | 0.0748 |
| AACCTTCC | 0.079 |
| TCGGAGAA | 0.0725 |
| GCCTGTGA | 0.0761 |

| Sequence | binding signal (normalized occupancy) |
| --- | --- |
| AATCACAT | 0.0908 |
| TCACCTCA | 0.0824 |
| GTGGCAAA | 0.0796 |
| CAAAGCCG | 0.0636 |
| GGTAGGAC | 0.0714 |
| CGCAACCC | 0.0716 |
| ATATCAAA | 0.0825 |
| CCAGGGGA | 0.0742 |
| AATAATCA | 0.0776 |
| TCTCACCA | 0.0809 |
| CTTACGAA | 0.0737 |
| ATTCTTAC | 0.0779 |
| GGGGACGA | 0.0762 |
| CACAGATG | 0.082 |
| CATTCGTA | 0.0782 |
| GTGCGGCA | 0.0826 |
| ACACGGAG | 0.0756 |
| ATGAACGC | 0.0778 |
| AAGCAAGA | 0.0758 |
| AATGAGTC | 0.0814 |
| AGCTCCTG | 0.0669 |
